# Data from PubChem BioAssay (Tox21).
# “And” between values parts separate entries of the source, which are not always exact repeats. Equal entries are not always repeated. Inconclusive means that the source gave no clear call. Such entries were picked first, then a sample of the others. Potencies beside an inconclusive call are fits to weak or partial responses and may not hold up. Some structures have more than one record in an assay (separate samples or runs), and their calls can disagree. The source made the active and inactive calls. Unless noted, calls come from the whole dose curve; as a rule, active = well fitted curve in the direction sought with a large enough effect in the repeat runs; inconclusive = weak or mixed curves; inactive = no such curve, though single readings can be large; an effect the other way counts as inactive or inconclusive.
# Tests used:
# [1] = target: Estrogen receptor (Homo sapiens) (UniProt P03372); experiment: qHTS assay to identify small molecule antagonists of the estrogen receptor alpha (ER-alpha) signaling pathway (AID 743069; active = well fitted curve in the direction sought with a large enough effect in the signal ratio in the repeat runs, not every such curve was filed as active; inconclusive = weak or mixed curves, or effect the other way; inactive = no such curve, though single readings can be large or run the other way; the % refers to the signal ratio); conditions: HEK293 ER-alpha-UAS-bla, beta-lactamase ratio, antagonist mode; activity, negative = inhibition: at 69.4 µM (top of the series) unless noted
# Outline: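 ER-alpha-UAS-bla GripTite HEK293 line; 2% charcoal-stripped FBS overnight; plated, 4 hr 37C/5% CO2; cpd in DMSO + 17beta-estradiol, 18 hr 37C; LiveBLAzer B/G FRET substrate 2 hr RT; fluorescence intensity.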
# [2] = qHTS assay to identify small molecule antagonists of the estrogen receptor alpha (ER-alpha) signaling pathway - cell viability counter screen (AID 743074; calls by dose curve;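 note: HEK293 cells carrying ER-alpha-UAS-bla reporter stimulated with 17beta-estradiol; nearly all actives have a fitted effect of over 45% in size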)
# [3] = qHTS assay to identify small molecule antagonists of the estrogen receptor alpha (ER-alpha) signaling pathway using the BG1 cell line - cell viability counter screen (AID 743081);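 note: compound given together with 17beta-estradiol as the ER stimulus; nearly all actives have a fitted effect of over 45% in size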
# [4] = qHTS assay to identify aromatase inhibitors - cell viability counter screen (AID 743084); conditions: MCF-7 aro ERE viability, CellTiter-Fluor, 24 h; activity change, negative = cytotoxicity: at 70.3 µM (top of the series) unless noted;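 note: cells stimulated with testosterone during compound exposure; nearly all actives have a fitted effect of over 55% in size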
# [5] = target: Estrogen receptor (Homo sapiens) (UniProt P03372); experiment: qHTS assay to identify small molecule agonists of the estrogen receptor alpha (ER-alpha) signaling pathway using the BG1 cell line (AID 743079); conditions: BG1Luc4E2 cells, ERE-luciferase agonist, 22 h; note: nearly all actives have a fitted effect of over 20% in size
# Aromatase (Homo sapiens) = Aromatase (Homo sapiens) (UniProt P11511); experiment: qHTS assay to identify aromatase inhibitors (AID 743083); note: nearly all actives have a fitted effect of over 55% in size
# [6] = qHTS assay to identify small molecule antagonists of the estrogen receptor alpha (ER-alpha) signaling pathway using the BG1 cell line (AID 743080; calls by dose curve;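 note: BG1 cells stimulated with 17beta-estradiol alongside compound; nearly all actives have a fitted effect of over 25% in size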); conditions: BG1Luc4E2 ERE-luciferase antagonist mode, luminescence; activity change, negative = inhibition: at 70.3 µM (top of the series) unless noted
# Outline: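 BG1-Luc-4E2 cells (endogenous full-length ER-alpha, stable 4×ERE-luciferase) were starved 5 days in phenol-red-free medium with 10% charcoal-stripped FBS, plated 24 h, then given compound plus 17beta-estradiol for 21.5 h at 37 C; ONE-Glo luminescence read after 30 min.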
# [7] = target: Aryl hydrocarbon receptor (Homo sapiens) (UniProt P35869); experiment: qHTS assay to identify small molecule that activate the aryl hydrocarbon receptor (AhR) signaling pathway (AID 743085); note: nearly all actives have a fitted effect of over 15% in size;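 for activation: HG2L7.5c1 human HepG2 liver cells with stably integrated DRE-driven firefly reporter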
# Outline: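 Luminescence (ONE-Glo) from a dioxin-responsive-element luciferase reporter in HG2L7.5c1 HepG2 cells after 24 hr compound exposure at 37C; viability measured by CellTiter-Fluor fluorescence beforehand.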
# [8] = target: Estrogen receptor (Homo sapiens) (UniProt P03372); experiment: qHTS assay to identify small molecule agonists of the estrogen receptor alpha (ER-alpha) signaling pathway (AID 743075; calls by dose curve;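 note: HEK293 GripTite cells with ER-alpha and UAS-driven beta-lactamase reporter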); conditions: HEK293 ER-alpha-UAS-bla, beta-lactamase FRET ratio, 18 h; activation: at 70.1 µM (top of the series)
# [9] = activation: at 70.3 µM (top of the series) unless noted
# % is set by controls: 0 for no effect and ±100 for the full control effect; potency is the fitted concentration of half-maximal effect; tags give direction and shape of the fitted curve or compound fluorescence and quenching.
# UniProt P03372, sequence (P03372 whole entry, looked up): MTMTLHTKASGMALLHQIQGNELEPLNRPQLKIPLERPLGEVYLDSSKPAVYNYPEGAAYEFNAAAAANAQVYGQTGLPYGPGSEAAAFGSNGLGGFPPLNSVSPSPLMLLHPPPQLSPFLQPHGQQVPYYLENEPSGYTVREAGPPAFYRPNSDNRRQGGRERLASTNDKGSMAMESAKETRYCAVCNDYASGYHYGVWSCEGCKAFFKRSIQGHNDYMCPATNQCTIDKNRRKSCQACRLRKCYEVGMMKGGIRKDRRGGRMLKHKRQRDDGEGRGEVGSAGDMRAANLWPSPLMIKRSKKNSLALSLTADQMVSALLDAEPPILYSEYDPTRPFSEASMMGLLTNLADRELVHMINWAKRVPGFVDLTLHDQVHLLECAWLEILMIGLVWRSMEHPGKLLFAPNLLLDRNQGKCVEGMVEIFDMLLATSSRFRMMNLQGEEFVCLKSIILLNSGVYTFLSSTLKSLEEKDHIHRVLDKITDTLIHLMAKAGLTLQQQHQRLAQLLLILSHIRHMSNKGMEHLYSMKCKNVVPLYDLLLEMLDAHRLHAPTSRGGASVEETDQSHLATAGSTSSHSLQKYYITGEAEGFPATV
# UniProt P35869, sequence (P35869 whole entry, looked up): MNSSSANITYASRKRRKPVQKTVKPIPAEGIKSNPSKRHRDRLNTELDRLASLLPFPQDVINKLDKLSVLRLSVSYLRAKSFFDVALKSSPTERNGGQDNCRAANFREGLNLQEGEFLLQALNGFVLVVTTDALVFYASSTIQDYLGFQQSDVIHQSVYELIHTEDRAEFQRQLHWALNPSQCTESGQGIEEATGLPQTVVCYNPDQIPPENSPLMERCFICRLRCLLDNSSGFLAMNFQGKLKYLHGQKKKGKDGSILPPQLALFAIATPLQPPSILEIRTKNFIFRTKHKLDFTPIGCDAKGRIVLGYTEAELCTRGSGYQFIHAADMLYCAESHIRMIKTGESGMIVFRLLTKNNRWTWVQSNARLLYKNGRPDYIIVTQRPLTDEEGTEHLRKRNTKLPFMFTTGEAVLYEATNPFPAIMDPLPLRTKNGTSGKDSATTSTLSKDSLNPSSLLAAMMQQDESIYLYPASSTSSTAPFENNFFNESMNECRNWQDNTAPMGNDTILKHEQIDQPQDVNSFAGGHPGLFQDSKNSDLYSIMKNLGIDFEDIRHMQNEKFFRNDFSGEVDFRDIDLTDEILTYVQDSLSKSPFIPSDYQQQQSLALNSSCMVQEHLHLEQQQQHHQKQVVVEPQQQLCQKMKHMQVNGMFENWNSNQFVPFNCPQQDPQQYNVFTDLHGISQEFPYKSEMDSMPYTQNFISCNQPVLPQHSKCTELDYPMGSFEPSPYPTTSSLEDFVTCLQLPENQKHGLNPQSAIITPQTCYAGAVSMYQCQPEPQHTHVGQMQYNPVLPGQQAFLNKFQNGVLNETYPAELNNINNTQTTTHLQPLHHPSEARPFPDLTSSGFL
# UniProt P11511, sequence (P11511 whole entry, looked up): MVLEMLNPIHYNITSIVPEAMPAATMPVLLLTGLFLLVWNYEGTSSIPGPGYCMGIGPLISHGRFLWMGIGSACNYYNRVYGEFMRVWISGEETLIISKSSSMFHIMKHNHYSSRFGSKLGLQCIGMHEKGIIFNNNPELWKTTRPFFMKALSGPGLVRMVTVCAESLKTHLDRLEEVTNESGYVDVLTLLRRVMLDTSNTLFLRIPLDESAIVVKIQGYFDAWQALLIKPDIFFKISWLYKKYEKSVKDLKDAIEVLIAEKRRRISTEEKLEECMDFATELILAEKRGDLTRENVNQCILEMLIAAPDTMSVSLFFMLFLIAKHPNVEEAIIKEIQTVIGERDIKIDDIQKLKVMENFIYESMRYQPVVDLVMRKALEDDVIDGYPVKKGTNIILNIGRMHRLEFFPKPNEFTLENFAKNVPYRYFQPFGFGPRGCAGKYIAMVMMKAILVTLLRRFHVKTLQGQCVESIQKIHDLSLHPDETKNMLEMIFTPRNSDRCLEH
compound,measurement,setting,value
CC(C)(C)NC(=O)[C@H]1CC[C@H]2[C@@H]3CC[C@H]4NC(=O)C=C[C@]4(C)[C@H]3CC[C@]12C,"activity, negative = inhibition",[1],inconclusive: -26.8%
same,Potency,[2],"inconclusive: 12.3 µM [cytotoxic, full curve, poor fit]"
same,Potency,[3],"inconclusive: 14.3 µM [rising, partial curve, poor fit]"
same,Potency,[4],inactive
Oc1ccc(Cl)cc1C1CCCC1,"activity, negative = inhibition",[1],inconclusive: 12.6%
same,activation,[5]; [9],inconclusive: 8.89% [activator]
same,Potency,Aromatase (Homo sapiens),"inconclusive: 61.1 µM [inhibitor, single point]"
same,Potency,[4],inactive
C=CC(=O)OCC(O)COc1ccccc1 (stereo not given),Potency,[1],"inconclusive: 49 µM [activator, partial curve]"
same,Potency,[5]; [9],inactive
same,Potency,[6],"inconclusive: 48.6 µM [rising, partial curve]"
NC(N)=NC(N)=NCCc1ccccc1,Potency,[1],"inconclusive: 21.8 µM [fluorescent, full curve, poor fit] and inconclusive: 6.16 µM [fluorescent, partial curve]"
same,Potency,[2],"inconclusive: 24.4 µM [cytotoxic, full curve, poor fit] and inconclusive: 5.49 µM [cytotoxic, full curve]"
same,Potency,[3],"inconclusive: 10.9 µM [cytotoxic, full curve]"
C=CC(=O)OCC(CO)(COCC(COC(=O)C=C)(COC(=O)C=C)COC(=O)C=C)COC(=O)C=C,Potency,[1],"inconclusive: 24.2 µM [rising, partial curve]"
same,Potency,[2],active: 21.6 µM
same,Potency,[5]; [9],"inconclusive: 17 µM [inhibitor, full curve]"
same,Potency,[6],inconclusive: 1.91 µM
same,Potency,[3],active: 13.5 µM
same,Potency,[4],active: 1.7 µM
Cc1oncc1C(=O)Nc1ccc(C(F)(F)F)cc1,activation,[5]; at 32.5 µM (top of the series),inactive: 13.1%
OCCO,Potency,[7],inactive
Cc1c(N(C)C)c(=O)n(-c2ccccc2)n1C,Potency,[2],"inconclusive: 4.9 µM [rising, full curve, poor fit]"
same,Potency,[4],"inconclusive: 69.8 µM [cytotoxic, single point]"
COc1cc([C@@H]2c3cc4c(cc3[C@H](O)[C@H]3COC(=O)[C@H]23)OCO4)cc(OC)c1OC,Potency,[2],"inconclusive: 16.9 nM [rising, full curve] and inconclusive: 11 nM [rising, full curve]"
same,Potency,[7],"inconclusive: 23.7 µM [activator, partial curve, poor fit] and inconclusive: 27.3 µM [activator, partial curve]"
O=C(O)c1ccccc1C(c1ccc(O)cc1)c1ccc(O)cc1,Potency,[2],"inconclusive: 21.9 µM [cytotoxic, partial curve, poor fit]"
same,Potency,[3],inactive
CCCCCCCCCCCCCCNCCO,Potency,[8],inactive
same,Potency,[5]; [9],active: 0.188 µM
same,Potency,[6],"inconclusive: 33.5 µM [rising, partial curve, poor fit]"
CC/C(=C(\c1ccc(O)cc1)c1ccc(OCCN(C)C)cc1)c1ccccc1,Potency,[2],active: 39 µM
same,Potency,[3],active: 68.7 µM
same,Potency,[4],active: 48.7 µM
CCCC(=O)c1cc(O)c(O)cc1O,Potency,[2],"inconclusive: 38.9 µM [cytotoxic, partial curve]"
same,Potency,[3],active: 61.1 µM
same,Potency,Aromatase (Homo sapiens),"inconclusive: 96.9 µM [inhibitor, partial curve, poor fit]"
same,Potency,[4],inconclusive: 27.3 µM [cytotoxic]
O=C(CCCCCCCCc1cccnc1)N1CCC(C=C(c2ccccc2)c2ccccc2)CC1,Potency,[2],active: 43.6 µM
same,Potency,[3],"inconclusive: 68.6 µM [cytotoxic, single point]"
same,Potency,Aromatase (Homo sapiens),"inconclusive: 61.1 µM [inhibitor, single point]"
same,Potency,[4],"inconclusive: 13.7 µM [rising, full curve, poor fit]"
Cc1cc(C(C)(C)C)c(O)c(C(C)(C)C)c1,Potency,[2],inactive
same,Potency,[3],"inconclusive: 47.3 µM [rising, single point]"
same,Potency,[4],"inconclusive: 54.6 µM [cytotoxic, single point] and inconclusive: 61.1 µM [cytotoxic, partial curve]"
CC(=O)O[C@]1(C(C)=O)CC[C@H]2[C@@H]3C=C(Cl)C4=CC(=O)[C@@H]5C[C@@H]5[C@]4(C)[C@H]3CC[C@@]21C,Potency,[2],"inconclusive: 17.4 µM [cytotoxic, partial curve]"
same,Potency,[3],"inconclusive: 68.5 µM [cytotoxic, single point]"
same,Potency,[4],"inconclusive: 68.5 µM [cytotoxic, partial curve, poor fit]"
Cc1ccc(O)c(C(C)(C)C)c1,Potency,[2],"inconclusive: 388 nM [cytotoxic, full curve] and inconclusive: 4.9 µM [cytotoxic, full curve, poor fit]"
same,Potency,[3],active: 61 µM
same,Potency,[4],active: 17.2 µM
same,Potency,[7],inactive
c1ccc2occc2c1,Potency,[2],"inconclusive: 4.36 µM [cytotoxic, full curve]"
same,Potency,[4],active: 68.6 µM
c1ccc2c(c1)CCc1ccccc1N2,Potency,[2],"inconclusive: 49.2 µM [cytotoxic, single point]"
same,Potency,[4],"inconclusive: 54.8 µM [cytotoxic, partial curve]"
same,Potency,[7],"inconclusive: 61.4 µM [activator, partial curve]"
Brc1ccccc1-c1ccccc1,Potency,[2],"inconclusive: 0.0389 µM [rising, full curve, poor fit]"
same,Potency,[3],"inconclusive: 0.145 µM [rising, full curve, poor fit]"
CCN(CC)c1ccc(N)cc1,Potency,[2],"inconclusive: 25.2 µM [cytotoxic, partial curve]"
same,Potency,[3],active: 70.5 µM
CN(C)CCCN1c2ccccc2CCc2ccc(Cl)cc21,Potency,[2],inconclusive: 54.9 µM [cytotoxic]
same,Potency,[3],"inconclusive: 33.5 µM [cytotoxic, single point] and active: 54.5 µM"
same,Potency,Aromatase (Homo sapiens),inactive
same,Potency,[4],active: 48.6 µM
same,"activity change, negative = cytotoxicity",[4],inconclusive: -46.9% [cytotoxic]
CC(C)Cc1ccccc1,Potency,[8],inconclusive: 54.1 µM [activator]
Cc1cc2nc3c(=O)[nH]c(=O)nc-3n(C[C@H](O)[C@H](O)[C@H](O)CO)c2cc1C,Potency,[2],"inconclusive: 7.21 µM [cytotoxic, full curve, poor fit]"
same,Potency,[3],"inconclusive: 29.8 µM [rising, partial curve] and inconclusive: 53.9 µM [rising, partial curve] and inconclusive: 50.6 µM [rising, partial curve]"
CC1=C(/C=C/C(C)=C/C=C/C(C)=C\C(=O)O)C(C)(C)CCC1,Potency,[2],"inconclusive: 21.9 µM [cytotoxic, single point]"
same,Potency,[6],active: 0.244 µM
same,Potency,[3],"inconclusive: 68.8 µM [cytotoxic, partial curve, poor fit]"
same,Potency,[4],"inconclusive: 68.8 µM [cytotoxic, single point]"
CC(C)(c1cc(Br)c(OCCO)c(Br)c1)c1cc(Br)c(OCCO)c(Br)c1,Potency,[2],"inconclusive: 42.7 µM [cytotoxic, single point]"
same,Potency,[6],"inconclusive: 42.3 µM [falling, partial curve]"
same,Potency,[3],inconclusive: 59.7 µM [cytotoxic]
O=C(OC[C@H]1O[C@@H](OC(=O)c2cc(O)c(O)c(OC(=O)c3cc(O)c(O)c(O)c3)c2)[C@H](OC(=O)c2cc(O)c(O)c(OC(=O)c3cc(O)c(O)c(O)c3)c2)[C@@H](OC(=O)c2cc(O)c(O)c(OC(=O)c3cc(O)c(O)c(O)c3)c2)[C@@H]1OC(=O)c1cc(O)c(O)c(OC(=O)c2cc(O)c(O)c(O)c2)c1)c1cc(O)c(O)c(OC(=O)c2cc(O)c(O)c(O)c2)c1,Potency,[2],"active: 6.74 µM and inconclusive: 14.8 µM [cytotoxic, single point]"
same,Potency,[3],"active: 21.1 µM and inconclusive: 18.5 µM [cytotoxic, partial curve, poor fit]"
same,Potency,Aromatase (Homo sapiens),"inconclusive: 29.8 µM [inhibitor, partial curve] and inconclusive: 1.31 µM [inhibitor, full curve]"
same,Potency,[4],"inconclusive: 16.5 µM [cytotoxic, partial curve]"
Oc1ccc2cc(SSc3ccc4cc(O)ccc4c3)ccc2c1,Potency,[2],"inconclusive: 49 µM [cytotoxic, single point]"
same,Potency,Aromatase (Homo sapiens),"inconclusive: 68.7 µM [inhibitor, single point] and inconclusive: 68.6 µM [inhibitor, single point]"
same,Potency,[4],"active: 54.5 µM and inconclusive: 61.1 µM [cytotoxic, partial curve]"
COc1ccc(COC(C)=O)cc1,Potency,[2],inactive
same,Potency,[4],"inconclusive: 1.37 µM [rising, full curve, poor fit]"
ClC1=C(Cl)C(Cl)(Cl)C(Cl)=C1Cl,Potency,[2],"inconclusive: 4.39 µM [cytotoxic, full curve, poor fit] and inconclusive: 61.7 µM [cytotoxic, single point]"
same,Potency,[6],"inconclusive: 68.6 µM [falling, partial curve]"
CC1=C(/C=C/C(C)=C/C=C/C(C)=C\C=O)C(C)(C)CCC1,Potency,[2],"inconclusive: 46.4 µM [cytotoxic, partial curve]"
same,Potency,[3],"inconclusive: 57.9 µM [cytotoxic, single point]"
same,Potency,[4],"inconclusive: 64.9 µM [cytotoxic, single point]"
COc1ccccc1OCCNCC(O)COc1cccc2[nH]c3ccccc3c12 (stereo not given),Potency,[8],inactive
same,Potency,[5]; [9],inconclusive: 33.5 µM [inhibitor]
same,"activity change, negative = inhibition",[6],inconclusive: -12.3%
same,Potency,[3],"inconclusive: 33.5 µM [cytotoxic, partial curve, poor fit]"
same,Potency,[4],"inconclusive: 37.6 µM [cytotoxic, partial curve, poor fit]"
